From paper PMC4336329 (PLoS ONE, 2015) come the findings set out here.

Each structure is given as a SMILES string. Among all 310,000 compounds or so, about 14,000 (4.5%) showed an effect of 50% or more. Effects have a minus sign here. The list shows a part of the results.
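Also: peak tail current of the secondary pulse compared with the same well before compound.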

Sequence of human ether-à-go-go-related gene (hERG) potassium channel (Q12809 whole entry, looked up): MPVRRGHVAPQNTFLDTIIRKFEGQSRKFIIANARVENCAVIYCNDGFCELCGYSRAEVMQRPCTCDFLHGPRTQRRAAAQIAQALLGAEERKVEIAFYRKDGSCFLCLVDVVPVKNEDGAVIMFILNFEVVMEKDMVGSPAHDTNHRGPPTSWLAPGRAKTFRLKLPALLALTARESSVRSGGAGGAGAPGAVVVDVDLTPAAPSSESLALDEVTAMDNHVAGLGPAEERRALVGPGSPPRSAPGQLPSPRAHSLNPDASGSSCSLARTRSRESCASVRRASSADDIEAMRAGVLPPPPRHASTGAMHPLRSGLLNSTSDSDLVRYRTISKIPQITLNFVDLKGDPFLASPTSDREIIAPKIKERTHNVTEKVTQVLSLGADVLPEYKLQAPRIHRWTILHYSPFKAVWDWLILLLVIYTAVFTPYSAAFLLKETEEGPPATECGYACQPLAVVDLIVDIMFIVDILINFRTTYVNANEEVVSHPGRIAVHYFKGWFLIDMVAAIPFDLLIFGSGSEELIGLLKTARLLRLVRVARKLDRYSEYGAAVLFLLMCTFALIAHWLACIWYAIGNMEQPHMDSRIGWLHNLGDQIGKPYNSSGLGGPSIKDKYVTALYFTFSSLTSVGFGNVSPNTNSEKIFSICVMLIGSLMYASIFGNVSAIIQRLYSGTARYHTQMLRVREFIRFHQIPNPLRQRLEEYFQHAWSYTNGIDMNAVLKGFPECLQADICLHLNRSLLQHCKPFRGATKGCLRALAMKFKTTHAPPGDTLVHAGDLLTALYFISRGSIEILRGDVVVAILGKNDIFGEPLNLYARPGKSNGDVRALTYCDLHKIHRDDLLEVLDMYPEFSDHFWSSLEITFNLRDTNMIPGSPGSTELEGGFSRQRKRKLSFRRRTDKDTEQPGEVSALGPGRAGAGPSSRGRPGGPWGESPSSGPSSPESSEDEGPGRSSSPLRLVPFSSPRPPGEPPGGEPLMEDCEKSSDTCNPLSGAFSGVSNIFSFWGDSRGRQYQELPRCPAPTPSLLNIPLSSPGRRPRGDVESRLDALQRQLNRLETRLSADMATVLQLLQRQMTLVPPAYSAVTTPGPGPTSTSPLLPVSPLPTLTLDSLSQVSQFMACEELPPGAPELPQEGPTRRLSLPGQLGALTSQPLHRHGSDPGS

The assay deals with human ether-à-go-go-related gene (hERG) potassium channel (human, UniProt Q12809). The assay can be described thus: primary screen, population patch clamp on CHO cells stably expressing hERG. The procedure:
Briefly, Chinese hamster ovary (CHO) cells stably expressing the hERG channel were dislodged from tissue culture flasks and dispensed into PPC plates. […] During the recording, background leak currents were estimated by a 100 ms step to -80 mV from an initial holding potential of -70 mV and subtracted from the subsequent current measurement. The campaign was conducted in two phases using slight differences in recording protocol. In the first phase, the initial voltage pulse used a 100 ms step to -30 mV from a holding potential of -70 mV, a 2 s conditioning step to +25 mV, and a 2 s test step to -30 mV. During the second phase of the screen, the potential during the conditioning step was raised to +45 mV. In both phases of the campaign, a secondary voltage pulse was applied using the same parameters as the second phase initial pulse. The initial and secondary pulses were applied in the absence of compound, and upon application of 1 μM and 10 μM test concentrations. […]
For `CCCCCC(=O)Nc1ccc(N2CCN(C(=O)CCC)CC2)cc1`, the “hERG current change (%, negative = inhibition) at 10uM” value is reported as -32.8%.
The figure for `COc1cc(C)c(S(=O)(=O)N2CCN(C)CC2)cc1C` is 11.2%; for `Cc1ccnc(NS(=O)(=O)c2ccc(NS(=O)(=O)Cc3ccccc3)cc2)n1` it is 9.43%.
The result for `COc1ccc(CSc2nnnn2-c2ccccc2)cc1` reads -11.7%; that for `CSC(=NCc1ccco1)NC#N`, -1.07%.
The result for `O=C(Nc1cc(-c2ccccc2)[nH]n1)c1ccccc1` reads -18%; that for `CCCCCOC(=O)Nc1nnc(CCCCC)s1`, -21.7%; that for `CCOC(=O)C1(CCCc2ccccc2)CCN(C(=O)[C@@H]2C[C@@H](C)NC(=S)N2)CC1`, -25.1%.
Turning to `COCc1cc(C)nc2sc(C(=O)N3CCN(c4ccccc4)CC3)c(N)c12`, the “hERG current change (%, negative = inhibition) at 10uM” value is listed as -22.5%.
The figure for `CS(=O)(=O)c1ccc2nc(NC(=O)C3CCCCC3)sc2c1` is 5.15%.
On to `CCCC/C(O)=C1\C(=O)CC(C)(C)CC1=Nc1ccc(OC)cc1`, for which the “hERG current change (%, negative = inhibition) at 10uM” value is on record as -17.6%.
The figure for `Cn1cc(S(=O)(=O)N2CCCC2)cc1C(=O)Nc1cccc(C(F)(F)F)c1` is 17.1%; for `Cc1ccc(OCc2nnc(SCc3cc(=O)[nH]c4ccccc34)n2-c2ccccc2)cc1` it is -36.7%; for `O=C(/C=C/c1cccs1)NCc1cccs1` it is -12.9%.
The result for `Cn1c(-c2ccccc2)c(C(=O)CC#N)c2ccccc21` reads 3.59%.
As for `O=C(O)c1ccc(NCCc2ccc(Cl)cc2)c([N+](=O)[O-])c1`, the “hERG current change (%, negative = inhibition) at 10uM” value was -6.59%.
In the case of `COc1ccccc1CNC(=O)C1CCN(S(=O)(=O)c2cccc3nonc23)CC1`, the “hERG current change (%, negative = inhibition) at 10uM” value is reported as 11.9%.
The figure for `O=C(N/N=C\c1cccc(Cl)c1)c1ccc(Cn2cccn2)o1` is -71.2%.
As for `O=C(NCC1CCCO1)c1ccc2c3n(nc2c1)-c1ccccc1CO3` (stereo not drawn), the “hERG current change (%, negative = inhibition) at 10uM” value is recorded as -7.22%.
The figure for `O=[N+]([O-])c1ccc(Sc2nccn2Cc2ccccc2)cc1` is -59.5%; for `CC(=O)N1CCc2cc(Br)cc(S(=O)(=O)N3CCc4ccccc43)c21` it is -46.1%; for `CCN1CCN(C(=O)/C(=C/c2ccco2)NC(=O)c2ccccc2)CC1` it is -70.4%.
The result for `Cc1ccc(OCC(=O)N/N=C/C=C/c2ccco2)cc1C` reads -23.9%; that for `CCCOc1ccc(C2C(C(=O)c3ccc(C)o3)=C(O)C(=O)N2Cc2ccco2)cc1` (stereo not drawn), 15.4%; that for `O=C(NCCO[N+](=O)[O-])c1cccnc1`, 8.33%.
The result for `COc1ccc(-c2noc(CCC(=O)NCc3cc(Br)ccc3OC)n2)cc1` reads 12%; that for `COc1ccc(N2C(=O)N(Cc3ccc(C)cc3)c3ccccc3S2(=O)=O)cc1`, 4.54%; that for `O=C(COC(=O)CCc1c[nH]c2ccccc12)NCCc1ccccc1`, 12.7%.
With `NC(=S)NC1CCS(=O)(=O)C1` (stereo not drawn), the “hERG current change (%, negative = inhibition) at 10uM” value is reported as 16%.
The result for `Cc1cccc(OCCCCCN2CCOCC2)c1` reads -4.05%.
The figure for `O=C(O)C1CN(C(=O)c2ccccc2)c2cc(Cl)ccc2O1` (stereo not drawn) is 15.5%; for `Cc1nn(-c2ccc(Cl)cc2)c(Cl)c1/C=C(\C#N)C(N)=O` it is 2.92%.
Consider `Cc1nnc(N2CCC(C(=O)N3CCCCC3)CC2)c2nn(-c3ccc(Cl)cc3)c(C)c12`, for which the “hERG current change (%, negative = inhibition) at 10uM” value is given as -73.9%.
The result for `CCn1cc(C2=NOC(C(=O)Nc3cccc(C(C)=O)c3)C2)c(C)n1` (stereo not drawn) reads -5.16%; that for `CC(C)CCN(C)C1CCN(C(=O)Nc2c(F)cccc2F)CC1`, 3.86%.
Consider `Cc1ccccc1CS(=O)(=O)Cc1ccc(C(=O)NCCCN2CC(C)CC(C)C2)o1` (stereo not drawn), for which the “hERG current change (%, negative = inhibition) at 10uM” value was -36.1%.
The figure for `CCOC(=O)c1cnc2ccc(OCC)cc2c1NCCCN1CCOCC1.Cl` is -75.6%; for `Cc1ccc(N2C(=O)CS/C2=C(\C(Cl)=C(Cl)Cl)[N+](=O)[O-])cc1` it is 21.5%; for `COc1ccc(NC(=S)NC(=O)Cc2ccccc2)cc1` it is 1.18%.
With `COC(=O)[C@@]12CCCCN1[C@H](c1ccc(-c3ccc(C(C)=O)cc3)cc1)[C@@H]1C(=O)N(C)C(=O)[C@@H]12.O=C(O)C(F)(F)F`, the “hERG current change (%, negative = inhibition) at 10uM” value turned out to be 6.73%.
On to `CC(C)(C)NCCCCOc1ccccc1F`, for which the “hERG current change (%, negative = inhibition) at 10uM” value is on record as -13.1%.
The result for `CCOc1ccc(C(=O)N2CCCC(c3nc(-c4ccc(C)o4)no3)C2)cc1` (stereo not drawn) reads -60.2%.
`Cc1cc(C)cc(N(CC(=O)Nc2ccc(Br)cc2)S(=O)(=O)c2c(C)[nH]c(=O)[nH]c2=O)c1`: the “hERG current change (%, negative = inhibition) at 10uM” value is given as -76.4%.
As for `CN(C)S(=O)(=O)c1ccc(S(=O)(=O)N2CCCC(C(=O)NC3CCCC3)C2)cc1` (stereo not drawn), the “hERG current change (%, negative = inhibition) at 10uM” value was -2.25%.
The figure for `O=C(O)CCCN=C1CCCc2ccccc2N1` is 13%.
